The list shows a part of the results. Cut-off read from the data, not from the text of the source: active = 3.2 or more and inactive = the rest. Only a few entries rise above the background.
These binders were tested against SHP2 C-SH2 domain E139D (assay: enrichment score (SH2-bound / input frequency) (ratio); bacterial display of known human phosphotyrosine sites (pTyr-Var adds point mutants) read by sequencing; higher = stronger binding; tyrosines were phosphorylated by kinases first). Settings: peptide library: pTyr-Var.
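Note: displayed peptides selected on beads carrying the immobilized SH2 domain, with library peptides lacking any tyrosine serving as negative controls.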

Enrichment score, inactive:
CPYNLYAAQLS [HGD_Y40_E42A] 1.27
RFLRGYRQHAY [HLA-A_Y137_D140H] 0.21
TFINKYQGKLF [HGD_Y249_V245F] 1.1
YMKEPYIQSRF [HIPK4_Y175_V171M] 0.861
RELSWYRGQRP [HESX1_Y106_R109Q] 0.367
RFLRGYEQDAY [HLA-A_Y137_R138E] 0.911
GAMGHYVLAER [HFE_Y342] 0.694
RFLRGYHQDAF [HLA-A_Y137_R138H_YF] 0.76
QRIHDYFEHRF [HCN4_Y554_YF] 2.71
RNLLIYTEFGK [HGD_Y166_G161R] 0.651
SHGKRYRVPSD [HHIPL2_Y395] 0.406
QRIHNYYEHRY [HCN4_Y554_D553N] 2.6
EEEPVYKAEPE [HCLS1_Y360_E361K] 0.41
HTKKNYGNSSV [HDX_Y197_A193T] 0.552
QRIHNYFEHRF [HCN4_Y554_D553N_YF] 2.96
CPFNLYAAQLS [HGD_Y40_E42A_YF] 0.955
FVKEPYIQSRF [HIPK4_Y175_YF] 0.711
GLNKGYRMVVN [HINT1_Y94] 0.974
TTKGSYSLFVR [HCK_Y180_S183Y_YF] 0.931

The binders below were run against SHP2 C-SH2 domain wild-type in the same assay as above. Settings: peptide library: pTyr-Var.

Enrichment score, inactive:
CPYNLYAAQLS [HGD_Y40_E42A] 1.24
RFLRGYRQHAY [HLA-A_Y137_D140H] 0.158
TFINKYQGKLF [HGD_Y249_V245F] 0.973
YMKEPYIQSRF [HIPK4_Y175_V171M] 0.903
RELSWYRGQRP [HESX1_Y106_R109Q] 0.343
RFLRGYEQDAY [HLA-A_Y137_R138E] 0.69
GAMGHYVLAER [HFE_Y342] 0.863
RFLRGYHQDAF [HLA-A_Y137_R138H_YF] 0.779
QRIHDYFEHRF [HCN4_Y554_YF] 1.81
RNLLIYTEFGK [HGD_Y166_G161R] 1.04
SHGKRYRVPSD [HHIPL2_Y395] 0.375
QRIHNYYEHRY [HCN4_Y554_D553N] 2.03
EEEPVYKAEPE [HCLS1_Y360_E361K] 0.57
HTKKNYGNSSV [HDX_Y197_A193T] 0.522
QRIHNYFEHRF [HCN4_Y554_D553N_YF] 2.46
CPFNLYAAQLS [HGD_Y40_E42A_YF] 0.991
FVKEPYIQSRF [HIPK4_Y175_YF] 0.681
GLNKGYRMVVN [HINT1_Y94] 0.645
TTKGSYSLFVR [HCK_Y180_S183Y_YF] 0.705

What follows are binders tested against SHP2 N-SH2 domain L43F in the same assay as above. Settings: peptide library: pTyr-Var.

Enrichment score, inactive:
CPYNLYAAQLS [HGD_Y40_E42A] 1.24
RFLRGYRQHAY [HLA-A_Y137_D140H] 0.194
TFINKYQGKLF [HGD_Y249_V245F] 0.808
YMKEPYIQSRF [HIPK4_Y175_V171M] 0.862
RELSWYRGQRP [HESX1_Y106_R109Q] 0.409
RFLRGYEQDAY [HLA-A_Y137_R138E] 0.582
GAMGHYVLAER [HFE_Y342] 0.674
RFLRGYHQDAF [HLA-A_Y137_R138H_YF] 0.607
QRIHDYFEHRF [HCN4_Y554_YF] 1.46
RNLLIYTEFGK [HGD_Y166_G161R] 1.35
SHGKRYRVPSD [HHIPL2_Y395] 0.476
QRIHNYYEHRY [HCN4_Y554_D553N] 2.28
EEEPVYKAEPE [HCLS1_Y360_E361K] 0.485
HTKKNYGNSSV [HDX_Y197_A193T] 0.708
QRIHNYFEHRF [HCN4_Y554_D553N_YF] 2.38
CPFNLYAAQLS [HGD_Y40_E42A_YF] 0.939
FVKEPYIQSRF [HIPK4_Y175_YF] 0.687
GLNKGYRMVVN [HINT1_Y94] 0.676
TTKGSYSLFVR [HCK_Y180_S183Y_YF] 1.02

The binders below were run against SHP2 N-SH2 domain T42A in the same assay as above. Settings: peptide library: pTyr-Var.

Enrichment score, inactive:
CPYNLYAAQLS [HGD_Y40_E42A] 0.976
RFLRGYRQHAY [HLA-A_Y137_D140H] 0.259
TFINKYQGKLF [HGD_Y249_V245F] 0.954
YMKEPYIQSRF [HIPK4_Y175_V171M] 0.624
RELSWYRGQRP [HESX1_Y106_R109Q] 0.27
RFLRGYEQDAY [HLA-A_Y137_R138E] 0.962
GAMGHYVLAER [HFE_Y342] 0.648
RFLRGYHQDAF [HLA-A_Y137_R138H_YF] 0.612
QRIHDYFEHRF [HCN4_Y554_YF] 1.5
RNLLIYTEFGK [HGD_Y166_G161R] 1.48
SHGKRYRVPSD [HHIPL2_Y395] 0.409
QRIHNYYEHRY [HCN4_Y554_D553N] 1.99
EEEPVYKAEPE [HCLS1_Y360_E361K] 0.343
HTKKNYGNSSV [HDX_Y197_A193T] 0.414
QRIHNYFEHRF [HCN4_Y554_D553N_YF] 2.5
CPFNLYAAQLS [HGD_Y40_E42A_YF] 0.941
FVKEPYIQSRF [HIPK4_Y175_YF] 0.477
GLNKGYRMVVN [HINT1_Y94] 0.522
TTKGSYSLFVR [HCK_Y180_S183Y_YF] 0.481

What follows are binders tested against SHP2 N-SH2 domain T52S in the same assay as above. Settings: peptide library: pTyr-Var.

Enrichment score, inactive:
CPYNLYAAQLS [HGD_Y40_E42A] 0.988
RFLRGYRQHAY [HLA-A_Y137_D140H] 0.301
TFINKYQGKLF [HGD_Y249_V245F] 0.888
YMKEPYIQSRF [HIPK4_Y175_V171M] 0.655
RELSWYRGQRP [HESX1_Y106_R109Q] 0.27
RFLRGYEQDAY [HLA-A_Y137_R138E] 0.724
GAMGHYVLAER [HFE_Y342] 0.626
RFLRGYHQDAF [HLA-A_Y137_R138H_YF] 0.811
QRIHDYFEHRF [HCN4_Y554_YF] 2.27
RNLLIYTEFGK [HGD_Y166_G161R] 1.26
SHGKRYRVPSD [HHIPL2_Y395] 0.543
QRIHNYYEHRY [HCN4_Y554_D553N] 2.43
EEEPVYKAEPE [HCLS1_Y360_E361K] 0.51
HTKKNYGNSSV [HDX_Y197_A193T] 0.525
QRIHNYFEHRF [HCN4_Y554_D553N_YF] 2.65
CPFNLYAAQLS [HGD_Y40_E42A_YF] 0.9
FVKEPYIQSRF [HIPK4_Y175_YF] 0.797
GLNKGYRMVVN [HINT1_Y94] 0.67
TTKGSYSLFVR [HCK_Y180_S183Y_YF] 1.01

The binders below were run against SHP2 N-SH2 domain wild-type in the same assay as above. Settings: peptide library: pTyr-Var.

Enrichment score, inactive:
CPYNLYAAQLS [HGD_Y40_E42A] 1.12
RFLRGYRQHAY [HLA-A_Y137_D140H] 0.333
TFINKYQGKLF [HGD_Y249_V245F] 1
YMKEPYIQSRF [HIPK4_Y175_V171M] 0.604
RELSWYRGQRP [HESX1_Y106_R109Q] 0.279
RFLRGYEQDAY [HLA-A_Y137_R138E] 0.995
GAMGHYVLAER [HFE_Y342] 0.829
RFLRGYHQDAF [HLA-A_Y137_R138H_YF] 0.73
QRIHDYFEHRF [HCN4_Y554_YF] 1.77
RNLLIYTEFGK [HGD_Y166_G161R] 1.16
SHGKRYRVPSD [HHIPL2_Y395] 0.388
QRIHNYYEHRY [HCN4_Y554_D553N] 2.42
EEEPVYKAEPE [HCLS1_Y360_E361K] 0.675
HTKKNYGNSSV [HDX_Y197_A193T] 0.608
QRIHNYFEHRF [HCN4_Y554_D553N_YF] 2.65
CPFNLYAAQLS [HGD_Y40_E42A_YF] 1.1
FVKEPYIQSRF [HIPK4_Y175_YF] 0.799
GLNKGYRMVVN [HINT1_Y94] 0.649
TTKGSYSLFVR [HCK_Y180_S183Y_YF] 1.02

From the supplement of paper PMC10369915
